Molecular target: T1, endogenous IQGAP1 (human, UniProt P46940 2-1657)
T1 construct: also called cellular IQGAP1
Test: GST pull-down from DU145 whole cell lysate, Western blot

T1 sequence (P46940 2-1657 limits assumed): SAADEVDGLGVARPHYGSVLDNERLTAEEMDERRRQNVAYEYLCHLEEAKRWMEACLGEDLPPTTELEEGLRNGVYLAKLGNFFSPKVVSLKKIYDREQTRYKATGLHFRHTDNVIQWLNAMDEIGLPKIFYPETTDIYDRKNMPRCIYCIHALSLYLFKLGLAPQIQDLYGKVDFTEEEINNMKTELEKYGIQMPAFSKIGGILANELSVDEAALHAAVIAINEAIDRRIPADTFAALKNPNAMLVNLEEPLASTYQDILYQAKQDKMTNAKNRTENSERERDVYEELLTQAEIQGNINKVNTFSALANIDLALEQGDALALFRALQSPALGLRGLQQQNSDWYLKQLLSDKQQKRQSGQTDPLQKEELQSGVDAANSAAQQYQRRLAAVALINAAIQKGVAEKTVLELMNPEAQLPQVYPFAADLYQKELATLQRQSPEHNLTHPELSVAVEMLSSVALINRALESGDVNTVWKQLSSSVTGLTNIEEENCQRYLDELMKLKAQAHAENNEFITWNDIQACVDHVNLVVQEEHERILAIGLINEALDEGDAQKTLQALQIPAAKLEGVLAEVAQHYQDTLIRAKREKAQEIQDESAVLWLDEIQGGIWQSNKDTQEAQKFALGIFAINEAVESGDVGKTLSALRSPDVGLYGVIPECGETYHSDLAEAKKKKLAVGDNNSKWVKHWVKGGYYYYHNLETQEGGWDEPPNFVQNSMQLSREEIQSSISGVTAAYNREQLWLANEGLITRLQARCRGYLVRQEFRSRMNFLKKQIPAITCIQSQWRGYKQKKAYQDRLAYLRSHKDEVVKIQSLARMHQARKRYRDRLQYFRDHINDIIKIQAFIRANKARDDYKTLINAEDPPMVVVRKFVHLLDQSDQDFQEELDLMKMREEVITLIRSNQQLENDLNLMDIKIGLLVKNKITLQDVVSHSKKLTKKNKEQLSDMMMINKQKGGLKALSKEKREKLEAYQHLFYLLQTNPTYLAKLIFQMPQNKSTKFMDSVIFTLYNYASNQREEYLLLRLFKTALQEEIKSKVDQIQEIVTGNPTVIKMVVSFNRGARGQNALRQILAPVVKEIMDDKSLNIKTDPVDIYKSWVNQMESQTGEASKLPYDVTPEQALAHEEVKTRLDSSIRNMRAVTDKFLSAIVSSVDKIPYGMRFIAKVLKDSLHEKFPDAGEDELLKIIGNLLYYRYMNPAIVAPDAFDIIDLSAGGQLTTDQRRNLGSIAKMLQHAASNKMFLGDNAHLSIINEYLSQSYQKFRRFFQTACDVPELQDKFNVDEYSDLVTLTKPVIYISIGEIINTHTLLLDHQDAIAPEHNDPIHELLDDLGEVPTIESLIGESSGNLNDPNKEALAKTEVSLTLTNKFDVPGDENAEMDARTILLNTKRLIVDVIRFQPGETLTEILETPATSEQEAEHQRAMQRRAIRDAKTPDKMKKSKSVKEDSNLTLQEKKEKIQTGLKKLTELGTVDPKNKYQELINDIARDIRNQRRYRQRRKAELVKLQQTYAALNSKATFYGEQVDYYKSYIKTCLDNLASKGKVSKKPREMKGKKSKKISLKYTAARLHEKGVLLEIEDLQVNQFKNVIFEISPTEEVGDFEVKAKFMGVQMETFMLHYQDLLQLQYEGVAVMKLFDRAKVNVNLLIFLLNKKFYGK

B1: GST (other)
chain: not shown
notes: Control protein of the GST pull-down; also called glutathione-S-transferase
binding result: no binding
